Values joined by “and” are separate entries in the source; they are usually repeats but may differ in a detail not shown here. Equal entries are not always repeated. The full ranking holds about 110,000 compounds; the median of “z-score” is about -0.1, and the highest 2% start at about 2. The list shows a part of the results. Active and inactive are the calls of the source.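 How the source made its calls: active means z-score in the third read window above 3 or below -3; inactive means the rest.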

The assay addresses Metabotropic glutamate receptor 8 (Rattus norvegicus) (UniProt P70579). The assay can be described thus: rat mGluR8 modulators via GIRK flux, primary screen, cell-based, thallium flux, HTS (AID 488969). The following applies: HEK293 rat mGluR8, GIRK (G protein-gated inwardly rectifying potassium channel) thallium flux, FluoZin2; at 10 µM; stronger effect = higher value; submaximal glutamate (EC20) added with thallium.
Chain of UniProt P70579 (P70579 whole entry, looked up): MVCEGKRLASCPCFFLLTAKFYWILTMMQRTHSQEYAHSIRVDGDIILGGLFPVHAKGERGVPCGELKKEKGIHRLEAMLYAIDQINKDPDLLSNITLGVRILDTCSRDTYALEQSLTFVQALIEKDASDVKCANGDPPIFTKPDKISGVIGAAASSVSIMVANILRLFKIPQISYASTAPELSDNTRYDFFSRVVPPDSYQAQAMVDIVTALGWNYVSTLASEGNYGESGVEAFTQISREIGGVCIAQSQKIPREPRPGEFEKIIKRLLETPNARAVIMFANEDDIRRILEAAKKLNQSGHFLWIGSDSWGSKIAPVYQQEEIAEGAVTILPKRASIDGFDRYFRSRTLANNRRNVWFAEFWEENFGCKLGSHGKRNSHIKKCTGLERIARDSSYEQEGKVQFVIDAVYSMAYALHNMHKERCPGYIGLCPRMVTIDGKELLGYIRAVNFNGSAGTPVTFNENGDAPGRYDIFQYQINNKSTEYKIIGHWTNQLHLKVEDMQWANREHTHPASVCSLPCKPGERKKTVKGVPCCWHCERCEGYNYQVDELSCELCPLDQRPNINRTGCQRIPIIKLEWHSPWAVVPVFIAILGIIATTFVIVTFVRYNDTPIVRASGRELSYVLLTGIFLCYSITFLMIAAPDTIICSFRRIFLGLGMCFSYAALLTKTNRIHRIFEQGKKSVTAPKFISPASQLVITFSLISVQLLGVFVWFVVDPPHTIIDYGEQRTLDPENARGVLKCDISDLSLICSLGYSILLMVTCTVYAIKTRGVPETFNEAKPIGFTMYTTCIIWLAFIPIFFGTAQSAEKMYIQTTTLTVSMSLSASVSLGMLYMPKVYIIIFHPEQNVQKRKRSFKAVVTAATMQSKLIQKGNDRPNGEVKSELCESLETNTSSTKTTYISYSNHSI
`O=C(CSc1nnnn1Cc1ccccc1)Nc1ccc2c(c1)OCO2` registered a z-score of -0.903.
For `Cc1ccc(C(=O)O)cc1NC(=S)NC(=O)C(c1ccccc1)c1ccccc1` the value was -0.483.
For `O=C(CSc1nc2ncc(Br)cc2[nH]1)c1ccc([N+](=O)[O-])cc1` the value was -1.08; for `CCc1cc(C)c(O)c(CC)n1`, -0.0228.
For `O=S1(=O)CCN2C(=N1)SC1=C2CCN(Cc2ccccc2)C1` the value was 1.34; for `Cc1ccc(S(=O)(=O)N2CCOCC2)cc1NC(=O)COC(=O)CNC(=O)c1ccccc1`, -0.201.
As for `COC(=O)c1c(C)[nH]c(O)c1C=Nc1ccc(C(C)C)cc1`, the z-score was -0.277.
For `C=C(C)C1CC=C(C)/C(=N/NC(=S)Nc2ccccc2)C1` (centres undefined) the value was 2.35; for `COc1ccc(S(=O)(=O)N2CCN(S(=O)(=O)c3ccc(C(F)(F)F)cc3)CC2)cc1C`, -0.768; for `OC(COc1ccc2ccccc2c1Br)Cn1cnc(-c2ccccc2)c1` (centres undefined), 0.432.
Next, `Clc1ccc(OCc2nc(-c3ccccn3)n[nH]2)cc1`: 1.03; `O=S(=O)(/N=C/N1CCOCC1)c1ccc(Cl)cc1`: -0.206; `O=C(C1CCCO1)N1CCN(S(=O)(=O)c2ccccc2)CC1` (centres undefined): -0.34.
Next, `O=C(Cc1cc(=O)[nH][nH]1)N/N=C/C(Cl)=C/c1ccccc1`: -0.191 and -0.199; `CCOC(=O)c1sc(-c2ccccc2)cc1N`: -0.0564; `O=C(NCCN1CCOCC1)c1ccc2c(c1)N(Cc1ccccc1F)C(=O)CS2`: -1.38.
For `CCC(C)Oc1nc2ccccc2nc1NS(=O)(=O)c1ccccc1` (centres undefined), the z-score is -0.098.
For `O=C(Oc1ccc(-c2nc(-c3ccccn3)no2)cc1)c1ccccc1` the value was 0.599; for `CCc1ccc(-c2cn3nc(C)c(C)nc3n2)cc1`, 0.536.
For `CCCCN=C1N/C(=C\c2ccco2)C(=O)N1c1ccccc1` the value was -0.339; for `CC(C)OC(=O)CSc1ncnc2c1cnn2Cc1ccccc1`, 0.106.
For `CCOC(=O)c1ccc(NC(=O)CS(=O)(=O)c2cn(CC)c3ccccc23)cc1` the value was -0.296; for `CC1(C)Cc2nc3sc4c(=O)n(CC(N)=O)cnc4c3cc2CO1`, -0.148.
`Fc1ccc(CNC(=S)NC2CCCC2)cc1` had a z-score of 0.00441.
For `Cc1nn(CC(=O)Nc2nc3ccccc3s2)c(C)c1[N+](=O)[O-]` the value was 0.602.
Next, `CCc1nnc(NC(=O)CN2C(=O)CCC2=O)s1`: 0.92.
For `CCCOC(=O)c1ccc(NC(=O)c2ccc(Br)o2)cc1` the value was -0.692; for `CC(=O)N1CCc2cc(S(=O)(=O)N3c4ccccc4CC3C)ccc21` (centres undefined), -0.113.
For the molecule `CC(C)C(=O)NC(c1cccs1)c1cc([N+](=O)[O-])c2cccnc2c1O` (centres undefined), the z-score turned out to be 0.262.
Next, `Cc1[nH]c2c(C)cccc2c1CCNC(=O)C1CCCCC1C(=O)OCC(F)(F)F` (centres undefined): -0.324; `O=C1CCCc2ccccc2N1Cc1ccc(Cl)cc1`: -0.414; `CCOc1cccc(C(=O)Nc2cccc(-c3nc4ncccc4o3)c2C)c1`: -0.073.
As for `CCOC(=O)CC1=C(C(=O)OCC)C(c2cc(OC)c(OC)cc2OC)C(C#N)=C(N)O1` (centres undefined), the z-score was 0.17.
Next, `O=C(CSc1ccccc1)NCCCN1CCOCC1`: 0.141; `O=C(Nc1ccccc1)c1ccccc1NS(=O)(=O)c1ccc(Cl)s1`: active: -3.39; `CCOC(=O)C1=C(c2ccccc2)N=C2SCC(=O)N2C1c1cccc(OC)c1` (centres undefined): -0.311.
Next, `COC(=O)CCC(NC(=O)c1cc(C)oc1C)C(=O)OC` (centres undefined): -0.261.
Next, `C[N+](C)(C)c1ccc(/C=N/Nc2nc(Cl)c(C#N)c(Cl)c2Cl)cc1`: 0.233; `Cc1cccc2cc(C#N)c(SCCN3CCCCC3)nc12`: 0.847.
Molecule `Cn1nnnc1SCC(=O)Nc1ccccn1` returned a z-score of -0.19.
For `CCN(CC(=O)Nc1ccccc1OC)C(=O)COc1ccc2ccccc2c1` the value was -0.0694; for `Cc1ccc(C(=O)NCc2ccc(N3CCN(C(=O)OC(C)(C)C)CC3)cc2)cc1`, 0.42; for `COc1ccc(Nc2ncnc3ccccc23)cc1`, -0.249.
Next, `COc1ccccc1N1CCN(CC(O)COCCOc2ccc(Br)cc2)CC1` (centres undefined): -0.42.
For `COc1ccccc1N(CC(=O)NC(C)C)S(=O)(=O)c1cccs1` the value was 0.0521; for `CN(C)S(=O)(=O)N(CC(=O)NCc1ccccc1)c1ccccc1`, -0.00107; for `O=C(NCc1ccccc1)NC1(C(=O)N2CCCC2)CCCCC1`, 0.429.
On to `CC(=O)SCCC(=O)N1C(C)CCCC1C(=O)O` (centres undefined), for which the z-score is -0.3.
As for `COc1ccc(CCNC(=O)c2ccc(-c3ccc([N+](=O)[O-])cc3Cl)o2)cc1OC`, the z-score is -0.288.
For `CCN(c1ccc(C)c(C)c1)S(=O)(=O)c1ccc2c(c1)CCN2C(=O)CCC(=O)O` the value was 0.0502; for `O=C(O)C1CC=CCC1C(=O)Nc1cccc(F)c1` (centres undefined), -0.623.
Next, `CCC(=O)c1cccc2c1N=CC1=C(CC(C)(C)CC1=O)N2`: 0.228; `Cc1ccc(S(=O)(=O)CCC(=O)NCc2ccccc2Cl)cc1`: 0.305; `Cc1nnc(SCC(N)=O)n1CCc1ccccc1`: -0.475.
Next, `COC(=O)c1cccc(Cn2nnc3ccccc3c2=O)c1`: 0.0414.
For the molecule `NC(=O)CSc1c[nH]c2ccccc12`, the z-score is 0.122.
`COc1ccc(CCNC(=O)Cn2c(-c3nonc3N)nc3ccccc32)cc1OC` displayed a z-score of -0.243.
`Fc1ccccc1N1CCN(Cc2nc(-c3ccccc3)no2)CC1` gave a z-score of -0.0575.
Next, `COc1ccccc1Nc1ncccc1C(=O)NCc1ccccc1`: 0.0123.
In turn, `CC(=O)c1ccc(N2CCN(C(=O)c3ccc4c(=O)n(-c5ccccc5)c(=O)[nH]c4c3)CC2)cc1` gave a z-score of -0.327.
For `Cc1c(NC(=O)OC(C)C)sc(=S)n1C` the value was -0.154.
For `Cc1cc(C(=O)N2CCN(c3ncccn3)CC2)cs1` the value was -0.16; for `CC(C)Cn1c(C(C)C)nc([N+](=O)[O-])c1Sc1ccc(Cl)cn1`, -0.454.
For `Clc1cc(CSc2ccccc2)nc(-c2ccccc2)n1` the value was -0.144; for `COC(=O)CSc1ncc(OC)c(OC)n1`, 0.123; for `COc1cc(-c2nnc(-c3cccs3)o2)cc(OC)c1OC`, 2.27.
`CC1=CC(C)(C)NC(=S)N1c1ccccc1` returned a z-score of -0.245.
Next, `CC(=O)C1=C(O)C(=O)N(CCc2c[nH]c3ccccc23)C1c1cccc(O)c1` (centres undefined): -0.00532; `COc1cc(C)ccc1OCCCOc1c(Cl)cccc1Cl`: -0.0753; `Cc1ccc(-n2c(COc3c(C)cccc3C)nnc2SCC(=O)Nc2nccs2)cc1`: -0.0629.
For `O=C(O)c1ccoc1CN1CCCCC1` the value was -0.206.
Next, `CCC/C(=N\NC(=O)c1csc(C)c1C)c1cccs1`: 0.475.
With `CCC(=O)c1coc2ccc(O)cc12`, the z-score came to 0.00564.
Next, `CCc1ccccc1NC(=O)c1cccc(NC(=O)/C=C/c2ccco2)c1`: -0.691.

(Values after PubChem BioAssay AID488969 (Vanderbilt High Throughput Screening Facility, 2010).)
